The chains are these.
B1: LINE1-full (parent)
chain: UACGUAGGUGGUUUUCCCCUGAUAGUGCUAAGGGGGCCUGGAAGUUUGGACUGGGCAGAGCUCAACACAGCGUGGCAAAGUGGCUGUGGCUAGACUGCCUCUCUGGAUUCCUCGUCACUCAGCAGGGCAUCUCUGAGAGAAAUGCC

Among the data in the RNAGym collection of RNA variant scans (doi:10.7554/elife.90254) are self-cleavage values, retold here.

Read counts are not given, so values of variants with three or more changes are uncertain.

The variants in this series derive from B1. Kind of series: self-cleavage, relative activity (ratio to wild type); higher = more cleavage; in vitro, sequencing; the parent is a self-cleaving ribozyme.
As for U62C C113U A140U, the self-cleavage was 0.05.

For U62C A124G U134A, the self-cleavage turned out to be 0.06.

As for U62C U91A U134G, the self-cleavage worked out at 0.11.

Turning to A64U A77U C99U C111U U119C A129G G144A, the self-cleavage turned out to be 0.22.

Take A65G G89A U104A: the self-cleavage is 0.05.

As for A65G G88A U100C A129G, the self-cleavage stood at 0.06.

Regarding A64U U73G U81C, the self-cleavage is 0.33.

Take A64G G75C U112A A140G: the self-cleavage came out at 0.15.

Regarding A64U U115A A121G, the self-cleavage worked out at 0.62.

With C61A U96C A107G A136G, the self-cleavage was 0.05.

Turning to U62C U109A U115A, the self-cleavage stood at 0.07.

As for A64G U96A A138G, the self-cleavage stood at 0.06.

Turning to U62C U132A U143A, the self-cleavage turned out to be 0.07.

Regarding A64G G82A U130A, the self-cleavage amounted to 0.24.

As to U62C A124U A141G C145G, the self-cleavage was 0.09.

Consider A59U G60A U115A, for which the self-cleavage amounted to 0.07.

With U62A U112C U115G, the self-cleavage worked out at 0.

For U62A G88A A141G, the self-cleavage worked out at 0.04.

As to A64U A69U A117G, the self-cleavage is 0.

C66A U81C A140G U143C: the self-cleavage turned out to be 0.06.

Turning to A65U A77G U96A A129G, the self-cleavage came to 0.04.

In the case of U62C U96A A121C, the self-cleavage was determined as 0.07.

Regarding A64G U81A A107U A140G, the self-cleavage is 0.2.

On to U62C A64G C110A A129G, for which the self-cleavage was determined as 0.1.

On to A59U A67C G89C, for which the self-cleavage came to 0.06.

Consider U62A A79G A129U U130C, for which the self-cleavage stood at 0.

Consider C61U C71U C84G U132A, for which the self-cleavage is 0.02.

As to U62C A79G U100C A140G, the self-cleavage was determined as 0.

For the variant G60A A69G A77G U104G, the self-cleavage is 0.37.

For the variant A64G A77U A121G, the self-cleavage was 0.4.

As for A59U U109C A142G, the self-cleavage worked out at 1.15.

For the variant G60A A77G U130A, the self-cleavage came to 0.01.

In the case of A59U U62C U73C A107G A142G, the self-cleavage came to 0.

Take U62C A67G A140G: the self-cleavage amounted to 0.17.

Turning to A64G G75C A78G U91A, the self-cleavage was 0.

A65G C66U A69G U143C: the self-cleavage is 0.07.

Take A64U A94G G114U: the self-cleavage came out at 0.1.

For the variant A65G U104G A124U, the self-cleavage was 0.

Turning to A64G U132A C146U, the self-cleavage was 0.39.

For A64U U96A U119A, the self-cleavage is 0.02.

Turning to C63U U100C A117G, the self-cleavage was determined as 0.56.

In the case of U62C A124U A136G, the self-cleavage was 0.06.

For A65G U96A U130C, the self-cleavage worked out at 0.09.

A59G U102C A136G: the self-cleavage was determined as 0.06.

As for A65U U85C U87C U108C, the self-cleavage amounted to 0.

As for A64U U96A U134A, the self-cleavage came to 0.03.

A65G A77U A140G: the self-cleavage turned out to be 0.

On to A64U A69U U87C, for which the self-cleavage was determined as 0.04.

With G60U C71U A107U, the self-cleavage worked out at 0.03.

Turning to A65U A79G A138G, the self-cleavage came to 0.48.

Turning to C66U U104A U119C, the self-cleavage came out at 0.05.

As to U62C U108A A121G, the self-cleavage stood at 0.04.

Regarding A65G A78U U112A A129U U132C A140G, the self-cleavage amounted to 0.19.

Regarding U62A U132A U134A, the self-cleavage was determined as 0.04.

As for U62A A121U A136G, the self-cleavage worked out at 0.02.

Regarding A59G U100C U119C G125A, the self-cleavage was determined as 0.

Regarding A64G U91C A138U, the self-cleavage worked out at 0.

Consider G60A U73C U109C A136G, for which the self-cleavage worked out at 0.02.

Turning to A59U A67G U85A, the self-cleavage stood at 0.03.

As to U62C A77G A138G U143G, the self-cleavage was 0.

As to A65G G72U U130A, the self-cleavage is 0.

Consider A65G A79G U134C, for which the self-cleavage amounted to 0.

Consider U62A A79U A141G, for which the self-cleavage was 0.03.

As to A65G A94G A136G, the self-cleavage stood at 0.

As to A59G U119C G126A, the self-cleavage turned out to be 0.3.

For the variant A64G A79G A124G, the self-cleavage came out at 0.

With A67C A92G A107U, the self-cleavage came out at 0.

In the case of U62C A78G A138G, the self-cleavage amounted to 0.07.

Regarding U62C A79G G83A, the self-cleavage stood at 0.04.

On to A64G U112C A140G, for which the self-cleavage was 0.3.

For the variant U62A A65G C90A U100G, the self-cleavage turned out to be 0.08.

In the case of U62C U73A G86A, the self-cleavage was determined as 0.01.

Take A65U U87A U112C A129G U143C: the self-cleavage is 0.03.

In the case of A64G A92U G114A U115C A117C A141G, the self-cleavage was determined as 0.86.

For the variant A65G A117U U119C A138G, the self-cleavage is 0.05.

With A65G U73C A78G, the self-cleavage worked out at 0.

As to A65C U102C U143C, the self-cleavage was determined as 0.03.

Regarding U62A G80A U85C C95U U104C, the self-cleavage stood at 0.01.

In the case of A64G U96A U134C A142U, the self-cleavage came to 0.09.

Take A59U U85A A124G: the self-cleavage was found to be 0.07.

On to U62C G97A U112C, for which the self-cleavage is 0.01.

Consider A59G U96A A138G, for which the self-cleavage stood at 0.07.

In the case of A64G G83A U85C, the self-cleavage stood at 0.05.

Turning to U62C A79G U119C, the self-cleavage turned out to be 0.

On to A59U U62C A79G U102A, for which the self-cleavage was determined as 0.

Regarding A65U G86A U109A U134C, the self-cleavage came to 0.02.

A59U U130C A142G: the self-cleavage was determined as 1.29.

As for C63A U85C A94G, the self-cleavage came to 0.05.

As for C66U C71U C113U, the self-cleavage was determined as 0.04.

Turning to U62C A67G A78G, the self-cleavage was 0.

As to U62A A78U U81C A136G, the self-cleavage is 0.

Consider U62C A79G C116U, for which the self-cleavage was 0.

For A59G U96C A121U, the self-cleavage was 0.

As to A64G U96C A142G, the self-cleavage turned out to be 0.12.

Regarding G60A G72A A77G, the self-cleavage was determined as 0.01.

For A64U A67G U115C, the self-cleavage amounted to 0.

For the variant A65G U91C U134A A136U, the self-cleavage stood at 0.33.

For A59G U104A A121U, the self-cleavage was 0.09.

Regarding U62C U85A U91A U115A A141U, the self-cleavage was determined as 0.

On to A64G U96A U100C, for which the self-cleavage came out at 0.

As for U62C U108C C145U, the self-cleavage came to 0.05.

Regarding U62C C63A U108A, the self-cleavage came out at 0.05.

Turning to U62C U100A A136U, the self-cleavage came out at 0.02.

On to A64G U104C A129G A136U A141G, for which the self-cleavage was 0.54.

Regarding U62A A77U U119C U130C, the self-cleavage turned out to be 0.07.

As to U62C A65U A124U, the self-cleavage was determined as 0.06.

On to A64U U85C U115C, for which the self-cleavage came to 0.09.

As to U62A U87A U132C, the self-cleavage is 0.02.

In the case of U62C U81A A117G, the self-cleavage turned out to be 0.04.

On to U62A A78U U115C, for which the self-cleavage was found to be 0.02.

Turning to U62A A77G U96C, the self-cleavage came out at 0.16.

In the case of U62C U102C G122A, the self-cleavage is 0.04.

Consider A65U A79G U115C, for which the self-cleavage is 0.2.

C63U A124G A136G: the self-cleavage is 0.2.

For A65G U73A U96A, the self-cleavage is 0.03.

In the case of U62C G114A G126A, the self-cleavage came out at 0.08.

With U62A A79G A138G, the self-cleavage was found to be 0.07.

Consider C61G U62C A141U, for which the self-cleavage was found to be 0.04.

As to A65G G86A A138G, the self-cleavage was determined as 0.03.

On to A64G A69G A77U U81C, for which the self-cleavage turned out to be 0.

Regarding C63U U119C U130C, the self-cleavage came to 0.32.

For G60A U115C A124G, the self-cleavage was found to be 0.

For the variant U62C U115C C133A A140G, the self-cleavage came out at 0.05.

Consider A65G U104C G126A, for which the self-cleavage is 0.1.

As for U62C U96A A138U, the self-cleavage worked out at 0.02.

On to A65U U73A U87C A117U U132C A136U, for which the self-cleavage amounted to 0.

As for A65G A117U U130C, the self-cleavage was 0.02.

As for U62C U73C U96C, the self-cleavage came to 0.

Consider A64G A79U A124G A138U A140G, for which the self-cleavage turned out to be 0.

With G60C A92G U96C A107G C128A, the self-cleavage came out at 0.12.

With A59U U112A U134C, the self-cleavage is 0.58.

On to C66U C95U A117U C120U A136G, for which the self-cleavage was 0.

As for A64U C66G U73A, the self-cleavage amounted to 0.02.

Regarding A64G U102C U130C U134C, the self-cleavage is 0.8.

For the variant U62C U96A C128U, the self-cleavage stood at 0.

In the case of A65U G105A U143C, the self-cleavage came out at 0.17.

A65C C66U U87C U119A: the self-cleavage was 0.02.

As for C66U A79G C146U, the self-cleavage was found to be 0.03.

With U62C A138U A142U, the self-cleavage is 0.04.

With A64U A69U U96A U100C U112A A136U, the self-cleavage worked out at 0.

For the variant C66A A78U A124U, the self-cleavage is 0.02.

Take A64G U102C C145U: the self-cleavage is 0.52.

As to U62C A94G A138G, the self-cleavage was found to be 0.

In the case of U62C U81A G105U U134A, the self-cleavage worked out at 0.03.

Turning to C66U G126A U132C, the self-cleavage was 0.1.

Turning to A64C U73C U100A A138U, the self-cleavage is 0.34.

As for A65U G74A A77G A138G, the self-cleavage worked out at 0.07.

For U62C C71U U73A A78G U109C, the self-cleavage was 0.05.

For the variant A65G U119A A141U U143C, the self-cleavage stood at 0.52.

As for U62A U108C U132A, the self-cleavage is 0.04.

As to U62C G93A U115A U130C, the self-cleavage was 0.05.

Consider U62C A77G A94G, for which the self-cleavage was 0.

Regarding U62C A92U A121U A140G, the self-cleavage is 0.

For A64G A69G G127C, the self-cleavage came to 0.

A65C G97U U102C A107U: the self-cleavage is 0.02.

In the case of A64U A78G G114A, the self-cleavage turned out to be 0.22.

In the case of A59U U109A C131U, the self-cleavage came to 1.16.

In the case of U62A A121U A124G U132A, the self-cleavage came out at 0.

With A65G U115C A138G, the self-cleavage was found to be 0.14.

A59U G80A A94G G97A A142G: the self-cleavage was found to be 0.23.

Consider A65G A69G U100C, for which the self-cleavage came to 0.

In the case of A59G U87G C120U, the self-cleavage was determined as 0.02.

Take A64G C76U U87C A117U: the self-cleavage amounted to 0.15.

With U62C G74A U108C, the self-cleavage turned out to be 0.02.

For U62C U96C A142G, the self-cleavage stood at 0.06.

Take A65G U73C U85C: the self-cleavage was found to be 0.

For the variant A59U C63U U115A A140G, the self-cleavage turned out to be 0.11.
